Assay results published in PubChem BioAssay AID488969 (Vanderbilt High Throughput Screening Facility, 2010).
Several values for one entry are separate records, joined by “and”; a condition that tells them apart may be missing. Identical values can stand only once. Over roughly 110,000 compounds, “z-score” has its median near -0.1; the highest 2% begin near 2. This is one part of the list. Activity calls are given as the source filed them.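 How the source made its calls: active means z-score in the third read window above 3 or below -3; inactive means the rest.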

Each molecule was assayed against Metabotropic glutamate receptor 8 (Rattus norvegicus) (UniProt P70579) (assay: mGluR8 Gi/Go-coupled signaling modulation – cell-based, rat, thallium flux, HTS, primary screen (AID 488969)). Settings: HEK293 rat mGluR8, GIRK (G protein-gated inwardly rectifying potassium channel) thallium flux, FluoZin2; at 10 µM; stronger effect = higher value; submaximal glutamate (EC20) added with thallium.
UniProt P70579, sequence (P70579 whole entry, looked up): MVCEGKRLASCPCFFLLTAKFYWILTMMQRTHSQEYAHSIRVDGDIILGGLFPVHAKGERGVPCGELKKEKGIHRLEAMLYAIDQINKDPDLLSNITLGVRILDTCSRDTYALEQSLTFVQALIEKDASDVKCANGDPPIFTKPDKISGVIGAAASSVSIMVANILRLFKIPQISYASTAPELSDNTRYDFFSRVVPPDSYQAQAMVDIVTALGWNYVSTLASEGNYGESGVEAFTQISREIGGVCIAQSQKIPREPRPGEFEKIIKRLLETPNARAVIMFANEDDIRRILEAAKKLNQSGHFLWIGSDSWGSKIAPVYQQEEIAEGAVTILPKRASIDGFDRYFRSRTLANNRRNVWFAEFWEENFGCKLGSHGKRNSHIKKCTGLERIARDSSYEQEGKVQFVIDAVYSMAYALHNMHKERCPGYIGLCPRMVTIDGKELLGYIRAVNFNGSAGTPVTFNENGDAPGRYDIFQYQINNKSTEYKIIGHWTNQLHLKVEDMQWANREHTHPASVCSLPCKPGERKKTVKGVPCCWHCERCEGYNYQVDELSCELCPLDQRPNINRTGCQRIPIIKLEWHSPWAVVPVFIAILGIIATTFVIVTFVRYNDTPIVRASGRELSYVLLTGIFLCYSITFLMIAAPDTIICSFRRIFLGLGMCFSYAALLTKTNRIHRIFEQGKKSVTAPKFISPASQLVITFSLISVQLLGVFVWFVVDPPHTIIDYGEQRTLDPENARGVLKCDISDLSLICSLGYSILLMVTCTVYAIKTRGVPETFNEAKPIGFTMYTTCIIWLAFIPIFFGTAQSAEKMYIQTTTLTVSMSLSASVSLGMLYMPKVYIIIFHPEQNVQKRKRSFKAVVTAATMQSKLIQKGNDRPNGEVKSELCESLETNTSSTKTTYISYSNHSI

SMILES	z-score
CC(NC(=O)Nc1ccc(Cl)c(Cl)c1)C(c1ccccc1)N1CCOCC1 (stereo not drawn)	-0.159
CCCn1cc(SCC(=O)NCc2ccc3c(c2)OCO3)c2ccccc21	-0.245
Cc1sc(NC(=O)Cn2[nH]c(=O)c3ccccc3c2=O)nc1-c1ccccc1	-0.0349
CN(Cc1ccccc1)Cc1nc2c(c(=O)n(C)c(=O)n2C)n1CCCc1ccccc1	-0.243
COc1ccc(CCNC(=O)CSc2nnc(Cc3csc(N)n3)n2C)cc1OC	0.544
Cc1ccccc1NC(=O)Cc1nnc(SCC(=O)c2ccc(Br)cc2)n1C	-0.0568
CSc1nnc(-c2ccco2)n1-c1ccccc1	-0.201
O=C(C1CCCN(S(=O)(=O)c2cccc3cccnc23)C1)N1CCN(c2ccccc2F)CC1 (stereo not drawn)	-0.422
Cc1cc(C(=O)NCc2cccs2)ccc1[N+](=O)[O-]	-0.105
CCOC(=O)C1CCN(c2cc(C)nc3cc(-c4cccc(F)c4)nn23)CC1	0.0509
O=C(NS(=O)(=O)c1ccccc1)c1ccccc1O	0.0922
Nc1ccccc1Nc1ccncc1[N+](=O)[O-]	0.252
CCS(=O)(=O)n1nc(-c2ccc(Cl)cc2)nc1SC	-0.344
CCN(CC)S(=O)(=O)c1ccc(C)c(NC(=O)CSc2nc3ccccc3[nH]2)c1	-0.271
COc1ccc(OC)c(N(CC(=O)Nc2ccccc2)S(C)(=O)=O)c1	0.193
CCOC(=O)c1ccccc1NC1CC(=O)N(c2ccccc2C)C1=O (stereo not drawn)	-0.0673
CCC(C)(C)NC(=O)C(c1cccn1C)N(Cc1ccc(C)cc1)C(=O)Cn1nnc2ccccc21 (stereo not drawn)	-1.17
CN(C)C(=O)Nc1ccc(F)cc1F	0.148
Cc1ccc(CN2CCN(CC(=O)NCc3ccc(Cl)cc3)C2=O)cc1	-0.228
CCS(=O)(=O)N1CCC(C(=O)OCC(=O)c2ccc(Br)cc2)CC1	-0.0779
NNC(=O)Cn1c(SCc2ccccc2)nc2ccccc21	-0.178
Cc1ccc(S(=O)(=O)N2CC3(C)CN(S(=O)(=O)c4ccc(C)cc4)CC(C)(C2)C3)cc1	-0.039

SMILES	z-score
CCN(CCNC(=O)Nc1ccc(Cl)cc1)c1ccccc1	-2.19
COc1ccc(CNC(=O)/C=C/c2ccc(S(=O)(=O)NCc3ccco3)cc2)cc1OC	-0.153
COc1ccc(N=C2NN=C(c3c(C)[nH]c4ccccc34)CS2)cc1	-0.004
Cc1nc(NC(=O)c2ccccc2)sc1-c1csc(Nc2cccc(Cl)c2)n1	-0.0316
CCOC(=O)c1c(N)sc(C(C)=O)c1C	0.968
S=C(Nc1ccc(Cl)cc1)c1sc(N2CCCCC2)nc1N1CCOCC1	-0.435
FC(F)(F)C12CC(c3ccccc3)=NCCN1CCN2 (stereo not drawn)	0.77
CCN1CCN(S(=O)(=O)c2ccc(Cl)c(C(=O)Nc3nnc(CC(C)C)s3)c2)CC1	0.16
CCN1C(=O)C2C(C1=O)N1C(c3ccccc3)C3C(=O)N(CC)C(=O)C3N1C2c1ccccc1 (stereo not drawn)	0.0538
CCOc1ccccc1C(=O)N(CCC(=O)OC)c1ccccn1	-0.297
COc1ccc2c(c1OC)C(=O)N(c1cccc(C(F)(F)F)c1)C2	0.193
CCOc1cc(/C=C2/C(=N)N3C=CSC3=NC2=O)ccc1OCCCOc1ccccc1C	-0.338
CCOc1cc(C(c2c(C)[nH][nH]c2=O)c2c(C)[nH][nH]c2=O)ccc1OCc1ccc([N+](=O)[O-])cc1	-0.27
CC1CC(C)(C)NC(=S)S1 (stereo not drawn)	-0.145
COC(=O)c1cc2oc(C)cc2n1CC(=O)Nc1ccc(OC)c(OC)c1OC	-0.587
Cc1cc(Cl)ccc1N1C(=O)CC(SCCC(=O)O)C1=O (stereo not drawn)	0.0171
N#C/C(=C(/O)COc1cccc2ccccc12)c1nc2ccccc2[nH]1	-0.201
COc1ccc(-c2nn(C)c(=O)c3ccccc23)cc1CNC(=O)c1ccco1	-2.21
C[C@@H]1C[C@H](O)c2cc(Cl)ccc2N1	0.163
CC(C)OCCCN(CC(O)c1ccccc1)CC(O)c1ccccc1 (stereo not drawn)	-0.0165
O=c1[nH]c(=O)n(Cc2ccco2)c2c1C(C(F)(F)F)(C(F)(F)F)N=C(c1ccc(F)cc1)N2	-0.176
C/C(CC(=O)NCc1ccco1)=N\NC(=O)Cc1ccc(Cl)cc1	-0.18

SMILES	z-score
COc1ccc(-n2ncc3c(SCC(=O)N4CCN(c5ccccc5OC)CC4)ncnc32)cc1	1.77
CCN(CC)CCn1c(NCc2cccc(OC)c2OC)nc2ccccc21	0.875
Cc1ccc(SCC(=O)NCc2cccnc2)cc1	0.188
COc1ccc(-c2cc(-c3ccccc3)c(C#N)c(S(C)(=O)=O)n2)cc1	0.0878
CCN(CC)CCNC(=O)Cn1c(C)cc2ccccc2c1=O	0.122
Nc1cc(=O)nc(SCC(=O)N(C2CCCCC2)C2CCCCC2)n1-c1ccccc1	-0.245
O=C(COC(=O)CC(c1ccccc1)c1ccccc1)NCc1ccccc1	-0.205
CC(=O)c1ccc(OCCCC(=O)N2CCN(S(=O)(=O)c3cccs3)CC2)cc1	-0.431
COc1ccc(NC(=O)CN(Cc2ccccc2)S(C)(=O)=O)cc1OC	0.083
CCC1(C)Cc2c(sc3nc(NN)n(C)c(=O)c23)CO1 (stereo not drawn)	-1.76
COc1ccc(Cl)cc1N1C(=O)/C(=C\c2sccc2C)N=C1SCC(=O)NC1CC1	-0.15
Cc1ccc(Cl)cc1NC(=O)CC(O)(C(F)(F)F)C(F)(F)F	-2.38
CCCCC(=Nc1ccc(N)cc1)C1=C(O)C(C(=O)OC)C(C)(C)CC1=O (stereo not drawn)	0.177
COc1cc(S(=O)(=O)N2CCCCC2)ccc1NC(C)=O	-0.134
COc1cc2c(cc1OC)C(SC)=NC(C)(C)C2	-0.855
COc1ccc(-c2nnc(SCC(=O)NCc3cccs3)n2CC(C)C)cc1	-0.108
COc1ccccc1N1CCN(Cc2nc3ccsc3c(=O)[nH]2)CC1	-0.0828
CCCS(=O)(=O)c1c(S(=O)(=O)CCC)c2ccccn2c1C(=O)OC	0.0483
CCc1cccc2c(C(=O)COC(=O)/C=C/c3ccccc3OC)c[nH]c12	-0.246
COc1ccc(S(=O)(=O)N(CCCN2CCCC2=O)Cc2cc3c(C)ccc(C)c3[nH]c2=O)cc1	-0.459
Cc1ccc(/C=C/C(=O)NCCCc2ccccc2)cc1	-0.256
O=c1cc(CSc2nnc(COc3ccccc3Cl)o2)nc2sccn12	0.0759

SMILES	z-score
O=C(O)c1[nH]c2ccc(Cl)cc2c1CC(=O)N1CCN(c2ccccc2)CC1	0.938
CCOC(=O)/C(C#N)=C/c1cn(CCOc2ccccc2)c2ccccc12	0.751
O=c1[nH]c2c(s1)C(c1ccc(O)cc1)C1C3CCC(C3)C1S2 (stereo not drawn)	-0.888
O=C(Nc1ccc2nc(-c3cccs3)[nH]c2c1)c1cccs1	-1.4
CC1CCC(C(C)C)C(OCC(O)CN2CCOCC2)C1 (stereo not drawn)	0.174
CC1CCc2c(sc(NC(=O)CSc3ncnc4c3cnn4-c3ccccc3Cl)c2C#N)C1 (stereo not drawn)	-0.899
O=C(c1cc2nc(-c3ccccc3)cc(C(F)(F)F)n2n1)N1CCOCC1	0.057
Cc1sc2nc3n(c(=O)c2c1C)CCCS3	-0.0491
COc1ccc(S(=O)(=O)Nc2ccccc2OC)cc1NC(=O)c1cc2ccccc2oc1=O	-0.0577
Cc1ccc(N(CC(=O)NC(C)c2ccccc2)S(=O)(=O)c2cccs2)cc1 (stereo not drawn)	-1.88
Cc1ccccc1C(C(=O)NC1CCCC1)N(C(=O)Cc1cccs1)c1ccc2c(c1)OCCO2 (stereo not drawn)	-0.335
COc1ccc2c(c1OC)C(=O)OC2CC(=O)c1ccc2c(c1)OCO2 (stereo not drawn)	-0.196
CCOC(=O)Cn1cnc([N+](=O)[O-])n1	-0.225
Cc1ccc(C(=O)c2c(NC(=O)CSc3nnc(N)s3)sc3c2CCCC3)cc1	-0.372
Cc1cc(C(=O)Nc2c(C)n(C)n(-c3ccccc3)c2=O)c(C)o1	-0.168
O=c1nc(N2CCOCC2)ccn1Cc1ccc(Br)cc1	-0.23
CCCCn1c(SCC(=O)Nc2cc(C)on2)nnc1-c1cccnc1	2.11
O=C(Nc1ccc2oc(-c3ccccc3F)nc2c1)c1ccc2c(c1)OCCO2	-0.681
Cc1cc(N/N=C/c2ccccc2Cl)nc(NCc2ccccc2)n1	0.191
COc1cccc(C(=O)NN2C(=O)C3C4C=CC(O4)C3C2=O)c1 (stereo not drawn)	-0.249
Cc1cccc(C)c1NC(=O)CCS(=O)(=O)c1cccc2nsnc12	0.588
O=S1(=O)c2ccccc2N=NN1Cc1ccc(Cl)c(Cl)c1	0.153

SMILES	z-score
O=C(CCC1CCCC1)NC1CCCCC1	-0.0138
CCCOc1ccc(C2c3c(oc4cc(C)c(C)cc4c3=O)C(=O)N2CCCN2CCOCC2)cc1 (stereo not drawn)	-0.881
COc1cc(N(C)C)c(NC(C)=O)cc1C(=O)O	0.018
CCOc1ccc(Nc2cc(C)nc(-n3nc(C)cc3C)n2)cc1	0.647
O=C(Cn1nnc(-c2ccccc2NC(=O)c2ccccc2)n1)Nc1ccc2c(c1)OCCO2	0.418
O=C(CNC(=O)Cc1ccccc1)NCC(=O)OCC(=O)c1ccc(Cl)cc1	-0.138
NC(=O)c1ccc(C(F)(F)F)n(Cc2ccccc2Cl)c1=O	-0.152
Cc1ccc(C(=O)COC(=O)CNC(=O)C(c2ccccc2)c2ccccc2)cc1[N+](=O)[O-]	0.162
COc1ccc(S(=O)(=O)N(C(C)=O)c2ccc(OC(C)=O)c3ccccc23)cc1[N+](=O)[O-]	-0.812
CCOC(=O)CSc1ncc(-c2ccccc2)cn1	-0.0802
Cc1ccc(C(O)(C(=O)NNc2ccc3ccccc3n2)c2ccc(C)cc2)cc1	-0.153 and 0.52
COc1cc(C(=O)N2CCC(N3CCCCCC3)CC2)cc(OC)c1OC	-0.523
CCOC(=O)c1c(C)oc2ccc(O)cc12	-0.208
CC1CCc2nn(CC(=O)N3CCN(C(=O)c4ccco4)CC3)cc2C1 (stereo not drawn)	active: 3.92
CC(=O)/C(N=Nc1ccc2c(c1)OCO2)=C(\C)O	-0.631
CC(=O)N1CCc2cc3nc(C)cc(C)c3cc21	0.771
CCN(c1ccc(NC(=O)CCNC(=O)c2ccco2)cc1)C(C)C	-0.0798
CCC(=O)Nc1cc(Cl)ccc1C(=O)O	0.022
CS(=O)(=O)N(CC(=O)Nc1ccc2c(c1)OCO2)c1ccc2c(c1)OCO2	-0.0648
CCN1C(=O)/C(=C/c2ccc(C)s2)NC1=S	active: 15.1
